Reference: PubChem BioAssay AID504832 (National Center for Advancing Translational Sciences (NCATS), 2011)
Out of some 310,000 compounds screened, about 18,000 (5.8%) were called active. Inconclusive means that the source gave no clear call. Such entries were picked first, then a sample of the others. Calls come from the whole dose curve; as a rule, active = well fitted inhibition curve with a large enough effect; inconclusive = small, poorly fitted or top-dose-only effect, or another doubt; inactive = no such curve, though single readings can be large or run the other way. Potencies of inconclusive entries are left out as doubtful fits.

Assay: Primary qHTS for delayed death inhibitors of the malarial parasite plastid, 48 hour incubation
Conditions: P. falciparum luciferase growth in erythrocytes; series mostly up to 28.7 µM; activity change, negative = inhibition: at the top concentration
How it was run: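 Luciferase-expressing P. falciparum in infected erythrocytes (2% hematocrit, 0.1% parasitemia final) in RPMI 1640/0.5% Albumax were exposed to compound for 48 hours at 37 C, 5% CO2; growth read as luminescence.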
% is set by controls: 0 for no effect and ±100 for the full control effect; potency is the fitted concentration of half-maximal effect; tags give direction and shape of the fitted curve.

| SMILES | Potency | activity change, negative = inhibition |
| --- | --- | --- |
| O=C(Cc1cccc2ccccc12)N/N=C/c1ccc(OC(=O)/C=C/c2ccco2)cc1 | active: 11.7 µM |  |
| COc1ccc(N2CCN(C(=O)CNC(=O)c3cccs3)CC2)cc1 |  | inactive: 18.4% |
| CC(C)(C)OC(=O)CNC(=O)c1[nH]cnc1C(=O)N[C@@H](Cc1ccccc1)C(=O)OCc1ccccc1 | inconclusive [inhibitor, single point] |  |
| CCCNC(=O)c1ccc2c(=O)c(O)c(-c3ccc(C)cc3)[nH]c2c1 | inconclusive [inhibitor, single point] |  |
| NC(C(=O)O)C1CC(Cl)=NO1 (stereo not drawn) | inconclusive [inhibitor, partial curve, poor fit] |  |
| CC(NC(=O)Cc1ccc(-c2ccccc2)cc1)c1ccccc1 (stereo not drawn) |  | inactive: -6.12% |
| COc1cc(C(O)P(=O)(OC2CCCCC2)c2ccc(N(C)C)cc2)cc(OC)c1OC (stereo not drawn) | inconclusive [inhibitor, single point] |  |
| Cc1ccc(S(=O)(=O)N(C)Cc2ccc(-c3nnc4n3CCC4)cc2)cc1 | active: 10.4 µM |  |
| CCOC(=O)c1ccc(NC(=O)N2CCN(Cc3cccc(F)c3)CC2)cc1 | inconclusive [inhibitor, partial curve] |  |
| O=C(C1CCC(=O)N(C2CCCCCC2)C1)N1CCN(c2ccccc2Cl)CC1 (stereo not drawn) | inconclusive [inhibitor, partial curve] |  |
| COc1ccc(C(=O)NCCOc2ccccc2)cc1S(=O)(=O)N1CCOCC1 | inconclusive [inhibitor, single point] |  |
| O=C(Nc1ccccc1C(=O)N1CCOCC1)c1ccc(CSc2ccccc2)cc1 | inconclusive [inhibitor, partial curve] |  |
| Cc1cc(O)c(C(C)C)cc1N=Cc1ccccc1O | inconclusive [inhibitor, partial curve, poor fit] |  |
| Cc1ccc(-c2csc(NC(=O)C3CCN(S(=O)(=O)c4cccs4)CC3)n2)cc1 | inconclusive [inhibitor, full curve, poor fit] |  |
| COc1ccc(-c2c(C#Cc3ccsc3)c3cc(Br)ccc3n2C)cc1 | inconclusive [inhibitor, partial curve] |  |
| Cc1ccc(S(=O)(=O)NCCC(=O)N2CCN(S(=O)(=O)c3cccc(F)c3)CC2)cc1C | inconclusive [inhibitor, partial curve, poor fit] |  |
| COc1cccc(NC(=O)c2ccncc2)c1 |  | inactive: 45.2% |
| COc1cc(S(=O)(=O)NC2CCSc3ccccc32)ccc1NC(C)=O (stereo not drawn) | inconclusive [inhibitor, partial curve, poor fit] |  |
| NC(N)=N/N=C/c1ccc(OS(=O)(=O)c2ccccc2)cc1 | active: 2.08 µM |  |
| CCC[n+]1cn(/C(C(=S)Nc2cccc(Cl)c2C)=C(/[O-])c2ccc(OC)c(OC)c2)c2ccccc21 | inconclusive [inhibitor, single point] |  |
| CCOC(=O)C1=C(C)N=C2SCCC(=O)N2[C@@H]1c1cccs1 | active: 10.4 µM |  |
| C#CCN[C@@H]1CCc2ccccc21 |  | inactive: 4.9% |
| CC[C@@]12C(=O)N(c3ccccc3)C(=O)N1[C@H](c1ccc(Br)cc1)[C@@H]1C(=O)N(C(C)(C)C)C(=O)[C@@H]12 | inconclusive [inhibitor, single point] |  |

| SMILES | Potency | activity change, negative = inhibition |
| --- | --- | --- |
| CCn1ncc(C2=NOC(C(=O)NCc3ccccc3)C2)c1C (stereo not drawn) |  | inactive: 26.7% |
| Nn1cnnc1SCC(=O)N1CCc2ccccc2C1 |  | inactive: 13.5% |
| Cc1ccc(C)c(S(=O)(=O)N2CCN(C(=O)[C@H](C)N3C(=O)C4CC=CCC4C3=O)CC2)c1 (stereo partly drawn) | inconclusive [inhibitor, single point] |  |
| O=C(Oc1c(CN2CCOCC2)cc(Cl)c2cccnc12)c1ccccc1 | inconclusive [inhibitor, full curve] |  |
| O=C(N/N=C/c1c(O)ccc2ccccc12)c1ccc(CO)nc1 | inconclusive [inhibitor, single point] |  |
| Cc1c(Cc2ccc3c(c2)OCO3)sc(NC(=O)C2CC2)c1C(N)=O |  | inactive: -15.4% |
| CCCNC(=O)COc1coc(CN2CCN(Cc3ccccc3)CC2)cc1=O |  | inactive: 6.97% |
| Cc1ccccc1Nc1nc(Cl)c(C=O)s1 | inconclusive [inhibitor, partial curve, poor fit] |  |
| O=C(c1ccc(CN2CCc3ccccc3C2)cc1)N1CCN(c2ccccc2)CC1 |  | inactive: 23.4% |
| COc1ccccc1CNC(=O)c1ccc2ccccc2n1 | inconclusive [inhibitor, single point] |  |
| CCOC(=O)NC(NC(=O)OCC)C(=O)c1ccc(F)cc1 |  | inactive: 42.1% |
| COc1cc(C(=O)NC2CCCCC2)ccc1OCc1ccc(Cl)cc1Cl |  | inactive: 9.87% |
| CC1CCN(S(=O)(=O)c2ccc3ncn(CC(=O)N(C)Cc4ccccc4)c(=O)c3c2)CC1 | inconclusive [inhibitor, partial curve, poor fit] |  |
| O=c1[nH]c(=S)[nH]c(O)c1N=Nc1ccc2c(c1)OCCO2 |  | inactive: 26.9% |
| O=S(=O)(Nc1ccccc1C(F)(F)F)c1ccc(-c2ccccn2)s1 |  | inactive: 1.27% |
| COc1cc(C(=O)Nc2cc(S(C)(=O)=O)ccc2Cl)ccc1OCC(=O)N1CCOCC1 |  | inactive: -9.89% |
| S=C(Nc1cccc(Br)c1)N1CCn2cccc2C1c1cccnc1 (stereo not drawn) | active: 11.7 µM |  |
| Cc1ccccc1C1NC(c2ccccc2C)C([N+](=O)[O-])C(C)(C)C1[N+](=O)[O-] (stereo not drawn) | inconclusive [inhibitor, partial curve, poor fit] |  |
| Cc1ccc(Oc2nc3ccccn3c(=O)c2/C=C(\C#N)C(=O)NC2CCS(=O)(=O)C2)c(C)c1 (stereo not drawn) | inconclusive [inhibitor, partial curve] |  |
| CC(=O)c1sc(NC(=O)c2ccc(C)c(C)c2)nc1C |  | inactive: 429% |
| CCc1c(C)nc2cc(-c3cccs3)[nH]n2c1=O | inconclusive [inhibitor, single point] |  |
| C=C(C)C1CCC2(C(=O)O)CCC3(C)C(CCC4C5(C)C(C=O)C(O)C(C)(C)C5CCC43C)C12 (stereo not drawn) | inconclusive [inhibitor, partial curve, poor fit] |  |
| CCN1C=C(Cc2ccc(OC)cc2)C2=C(C1)C(c1ccc(OC)cc1)C(C#N)=C(N)O2 (stereo not drawn) | inconclusive [inhibitor, partial curve, poor fit] |  |

| SMILES | Potency | activity change, negative = inhibition |
| --- | --- | --- |
| COc1cc(/C=C/C(=O)OCC(=O)NCCc2ccccc2)cc(OC)c1OC | inconclusive [inhibitor, partial curve] |  |
| COc1cccc(-c2nc(CS(=O)(=O)CC(=O)NCc3ccccc3OC)c(C)o2)c1 |  | inactive: 18.9% |
| CCN(CC)C(=O)/C(=C/c1cn(S(=O)(=O)N(C)C)c2ccccc12)NC(=O)c1ccc(OC)cc1 | inconclusive [inhibitor, single point] |  |
| O=C(NCCc1ccccn1)c1cc(-c2ccc(Cl)c(Cl)c2Cl)nc2ccccc12 | inconclusive [inhibitor, single point] |  |
| Cc1cccc(N2CCN(C(=O)CC(NC(=O)c3ccccc3Cl)c3ccccc3)CC2)c1C (stereo not drawn) | inconclusive [inhibitor, single point] |  |
| COC(=O)C(C(C)C)N1CCc2c(C)nc3c(C#N)cnn3c21 (stereo not drawn) | inconclusive [inhibitor, partial curve] |  |
| Cc1ccc(S(=O)(=O)N2CCCCC2C(=O)O)s1 (stereo not drawn) | inconclusive [inhibitor, partial curve, poor fit] |  |
| CNc1ccc(Br)cc(C(=O)/C=C/c2cc(OC)ccc2OC)c1=O | inconclusive [inhibitor, single point] |  |
| CCOc1ccc(N=C2SCCCN2C)cc1 |  | inactive: 0% |
| O=C(CSc1ncn[nH]1)c1ccc(OC(F)F)cc1 |  | inactive: 11.1% |
| O=C1CN(C(=O)c2ccccc2F)C(c2ccccc2)c2cc(F)ccc2N1 (stereo not drawn) | inconclusive [inhibitor, single point] |  |
| CNc1c(NC(=O)COc2ccc(Cl)cc2)c(=O)oc2ccccc12 | active: 10.4 µM |  |
| CCn1cc(C(=O)O)c(=O)c2cc(F)c(N3CCN(C(=S)NC(=O)c4ccc(F)c(F)c4)CC3)cc21 | active: 6.57 µM |  |
| CCCCN(C(=O)c1cccc(S(=O)(=O)N(C)c2ccc(C)cc2)c1)c1c(N)n(CCCC)c(=O)[nH]c1=O | active: 0.37 µM |  |
| COc1ccccc1CNCc1cc(Br)ccc1OC | active: 11.7 µM |  |
| CCCCN1CCN=C1N(C)C | inconclusive [inhibitor, single point] |  |
| C=CCOc1ccc(/C=C/C(=O)N2CCCN(S(=O)(=O)c3c(C)noc3C)CC2)cc1 | inconclusive [inhibitor, single point] |  |
| CC(C)[C@@]1(NC(=O)[C@@H]2C[C@@H]3c4cccc5[nH]cc(c45)C[C@H]3N(C)C2)O[C@@]2(O)[C@@H]3CCCN3C(=O)[C@H](Cc3ccccc3)N2C1=O | active: 1.85 µM |  |
| CC(=O)Nc1ccc(S(=O)(=O)Oc2ccc(Br)cc2C(=S)N2CCOCC2)cc1 | inconclusive [inhibitor, single point] |  |
| Cc1c(C(=O)N2CCOCC2)c(S(=O)(=O)Nc2ccccc2F)c(C)n1C | inconclusive [inhibitor, partial curve] |  |
| CCOc1ccc(NC(=S)N(CCc2c(C)[nH]c3ccccc23)Cc2ccco2)cc1 | inconclusive [inhibitor, single point] |  |
| CCOC(=O)Cc1csc(NC(=O)/C=C/c2cccc(Br)c2)n1 | active: 9.28 µM |  |
